Laboratory results: paper PMC5215869
Results are given in words; binding and its absence hold for the method and conditions named. In cells and extracts the contact can be indirect. Some binding calls cover weakened binding; strength is not graded here.

Sequences of proteins named here, by UniProt entry; tags and fusion partners are left off.
UniProt O14746: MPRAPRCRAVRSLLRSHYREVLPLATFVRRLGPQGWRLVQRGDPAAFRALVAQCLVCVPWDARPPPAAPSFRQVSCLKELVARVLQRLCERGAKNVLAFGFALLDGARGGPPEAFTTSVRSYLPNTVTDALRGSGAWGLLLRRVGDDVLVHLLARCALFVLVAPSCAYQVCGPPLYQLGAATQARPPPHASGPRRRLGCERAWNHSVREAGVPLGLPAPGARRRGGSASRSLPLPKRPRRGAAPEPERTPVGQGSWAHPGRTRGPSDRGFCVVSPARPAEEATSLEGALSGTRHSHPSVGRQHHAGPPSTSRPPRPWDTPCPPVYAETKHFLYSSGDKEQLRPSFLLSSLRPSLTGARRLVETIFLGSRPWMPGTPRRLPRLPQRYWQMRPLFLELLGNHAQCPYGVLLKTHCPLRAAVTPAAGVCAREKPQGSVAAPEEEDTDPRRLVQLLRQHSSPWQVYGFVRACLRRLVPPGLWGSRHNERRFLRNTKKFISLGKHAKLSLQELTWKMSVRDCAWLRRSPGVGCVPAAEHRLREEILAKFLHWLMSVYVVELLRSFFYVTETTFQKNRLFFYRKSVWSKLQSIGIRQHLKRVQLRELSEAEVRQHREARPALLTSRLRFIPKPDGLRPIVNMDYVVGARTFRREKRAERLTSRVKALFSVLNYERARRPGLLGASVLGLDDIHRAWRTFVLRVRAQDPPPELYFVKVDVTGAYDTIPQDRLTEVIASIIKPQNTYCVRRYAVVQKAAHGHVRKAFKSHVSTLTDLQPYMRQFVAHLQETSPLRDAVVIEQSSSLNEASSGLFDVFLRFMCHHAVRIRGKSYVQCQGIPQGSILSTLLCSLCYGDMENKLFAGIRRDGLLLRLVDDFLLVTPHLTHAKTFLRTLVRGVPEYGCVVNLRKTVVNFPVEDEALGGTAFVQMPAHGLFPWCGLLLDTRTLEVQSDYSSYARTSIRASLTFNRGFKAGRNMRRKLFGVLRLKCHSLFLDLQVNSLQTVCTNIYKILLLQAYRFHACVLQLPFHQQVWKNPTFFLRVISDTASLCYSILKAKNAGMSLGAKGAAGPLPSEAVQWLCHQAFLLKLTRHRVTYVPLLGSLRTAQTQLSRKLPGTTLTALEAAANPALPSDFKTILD

What was measured:
[1] = biological target: endogenous TERT (120 kD full length) of Huh 5-15NS replicon cells (human (endogenous in Huh 5-15NS)) (UniProt O14746); test: co-IP; lysates of log-phase Huh 5-15NS replicon cells; IP with anti-TERT (C-terminal specific) or anti-NS3 antibody, Western blot with specific antibodies; some lysates treated with RNAase A or H, DNAase I or ethidium bromide before IP, without effect (Fig 3B, 3D)
[2] = biological target: TERT in vector transfected HEK-293 cells (Fig 3C) (human) (UniProt O14746); test: co-IP; lysates of vector transfected HEK-293 cells; IP with anti-TERT or anti-NS3 antibody, Western blot with specific antibodies (Fig 3C)
[3] = biological target: HCV NS3-4A protease-helicase, genotype 1b (Con1), from pcDNA3.1 (Hepatitis C virus genotype 1b (Con1)) (UniProt Q9WMX2); test: co-IP; HEK-293 cells co-transfected with N-FLAG TERT (whole or fragments) and a viral protein vector; lysates immunoprecipitated with antibody to the viral protein, Protein G agarose, 4°C; Western blot with anti-FLAG (Fig 3A, Fig 4B)
[4] = biological target: N-FLAG NS5A of HCV (Hepatitis C virus (genotype not stated for this construct)) (UniProt Q9WMX2); test: as above
[5] = biological target: HCV NS3-4A protease-helicase, genotype 1b (Con1), from pcDNA3.1 (Hepatitis C virus genotype 1b (Con1)) (UniProt Q9WMX2); test: co-IP; lysates of vector transfected HEK-293 cells; IP with anti-TERT or anti-NS3 antibody, Western blot with specific antibodies (Fig 3C)
[6] = biological target: HCV NS3-4A of Huh 5-15NS sub-genomic replicon cells (genotype 1b) (Hepatitis C virus genotype 1b) (UniProt Q9WMX2); test: co-IP; lysates of log-phase Huh 5-15NS replicon cells; IP with anti-TERT (C-terminal specific) or anti-NS3 antibody, Western blot with specific antibodies; some lysates treated with RNAase A or H, DNAase I or ethidium bromide before IP, without effect (Fig 3B, 3D)

## HCV NS3-4A of Huh 5-15NS sub-genomic replicon cells (genotype 1b) (from UniProt Q9WMX2 1027-1657; Q9WMX2 1658-1711) (complex)
[1]
  binding: binds

## HCV NS3-4A protease-helicase, genotype 1b (Con1), from pcDNA3.1 (from UniProt Q9WMX2 1027-1657; Q9WMX2 1658-1711) (complex)
[2]
  binding: binds

## N-FLAG-labelled full length human telomerase reverse transcriptase (TERT) (from UniProt O14746 1-1132)
[3]
  binding: binds
[4]
  binding: no binding

## TERT in vector transfected HEK-293 cells (Fig 3C) (from UniProt O14746 1-1132)
[5]
  binding: binds

## endogenous TERT (120 kD full length) of Huh 5-15NS replicon cells (from UniProt O14746 1-1132)
[6]
  binding: binds
